Assay results from patent EP4129319A1, “PORE-FORMING ANTIMICROBIAL PEPTIDES” (priority 2021, dated 2023).
Not every detail of the peptide structures is certain; ends, links or a residue may be inferred. Some entries repeat one wording, which the source may state once for all of them. Ends that are not written are not given here.

What was measured:
[1] = Calcein leakage assay; assay type: biochemical; settings: for Extent of leakage (in percentage) at increasing peptide-to-lipid ratio (mol/mol) 1:20 / Extent of leakage (in percentage) at increasing peptide-to-lipid ratio (mol/mol) 1:50 / Extent of leakage (in percentage) at increasing peptide-to-lipid ratio (mol/mol) 1:100: calcein leakage, POPC:POPG (1:1 mol/mol) LUVs; for Extent of leakage (in percentage) at increasing peptide-to-lipid ratio (mol/mol) 1:20: peptide-to-lipid ratio 1:20 (mol/mol); for Extent of leakage (in percentage) at increasing peptide-to-lipid ratio (mol/mol) 1:50: peptide-to-lipid ratio 1:50 (mol/mol); for Extent of leakage (in percentage) at increasing peptide-to-lipid ratio (mol/mol) 1:100: peptide-to-lipid ratio 1:100 (mol/mol); for calcein / vesicle leakage, pore-forming ability (in words): POPC:POPG (1:1) LUVs
Method: (§1) Chemicals. […] (Prague, Czech Republic), and Caslo ApS (Kongens Lyngby, Denmark). […] The bacterial stock was stored at -80°C.
Calcein leakage assay. Pore-forming activity of the peptides was tested by their ability to leak the self-quenching fluorescent dye calcein entrapped within POPC:POPG (1:1 mol/mol) large unilamellar vesicles (LUVs). After mixing DiD to the lipid mixture (in the ratio 1:500 mol/mol), a thin lipid film was created by evaporating of the chloroform, traces of which were removed by desiccating overnight. The lipid film was then dissolved in calcein buffer, followed by vigorous vortexing. The lipid suspension was subsequently subjected to 10 freeze-thaw cycles. To obtain uniform LUVs, the sample was passed 50 times back and forth through an extruder stacked with 100 nm pore size polycarbonate membrane filter. Afterwards, the untrapped calcein was removed on a HiTrap Desalting Column (with Sephadex G-25 Superfine resin) by washing with PBS buffer. The concentration of the lipid suspension was then adjusted to 0.02 mM. The concentration of the peptide solution was 0.1 mM. The inventors monitored the peptide-induced release of calcein from LUVs by the increase in fluorescence intensity after adding increasing amounts of peptides to the LUVs under constant stirring at 25 °C. The investigated range of peptide/lipid molecular ratio was from 1:100 to 1:10. The excitation and emission wavelengths were set to 495 nm and 520 nm, respectively. Maximum fluorescence intensity was obtained by disrupting all the vesicles in the end by adding 10% Triton X-100. Experiments were performed in triplicates with independently prepared lipid vesicles.

[2] = test system: Gram-positive Staphylococcus carnosus CCM 4838T; assay type: cell-based
Method: as §1
(§2) Broth microdilution assay. Antimicrobial activity of the peptides was investigated against Gram-negative Escherichia coli TOP10 strain and Gram-positive Staphylococcus carnosus CCM 4838T using broth microdilution assay, based on which the inventors determined the bacterial minimum inhibition concentration (MIC). After cross streaking with bacteria, the petri dishes (with MHA) were incubated for 24 h at 37 °C. Overnight grown cultures were then sub-cultured for 4-6 h at 37 °C in test tubes containing MHB. The sub-cultured solutions were subsequently diluted to a standard concentration of 10^6 colony forming units (CFU) per mL. Cell counts were determined by measuring the optical density at 600 nm. In a flat-bottomed 96 well plate, the inventors prepared a dilution series for the peptides and for the reference antibiotic ampicillin from 50 to 0.1 µM concentration, which was then inoculated with bacteria and incubated for 24 h at 37 °C. Growth control wells were free from peptides or ampicillin to show the viability of the bacteria, and sterility control wells were free from bacterial inoculation to verify the sterility of the medium. The bacterial growth was visually evaluated based on the turbidity. MIC was determined as the lowest concentrated well where no visible bacterial growth was observed. To test the bacteriostatic or bacteriocidal activity of the peptides, 50 µl solution from the highest concentrated well (i.e., 50 µM) was transferred to a test tube containing 4 mL sterile MHB and incubated for 24 h at 37 °C under constant stirring. Streaking of the same solution was done on MHA containing petri dishes and incubated for 24 h at 37 °C to confirm the morphology of the colonies grown. Experiments were performed in triplicates.

[3] = test system: Gram-negative Escherichia coli TOP10 strain; assay type: cell-based
Method: as §1, §2

Substance	Extent of leakage (in percentage) at increasing peptide-to-lipid ratio (mol/mol) 1:20 [1]	Extent of leakage (in percentage) at increasing peptide-to-lipid ratio (mol/mol) 1:50 [1]	Extent of leakage (in percentage) at increasing peptide-to-lipid ratio (mol/mol) 1:100 [1]	antimicrobial activity against S. carnosus (in words) [2]	MIC against E. coli ([3]; 24 h at 37 °C, dilution series 50 to 0.1 µM)	times lower MIC than the MIC of ampicillin, E. coli ([3]; ratio to ampicillin)	calcein / vesicle leakage, pore-forming ability (in words) [1]
KKKKLKKILKKLFQFINQLDNQLQDIKQNK [KDFA2i+8]	103.2 ± 0.3 percentage	98.9 ± 2.3 percentage	68.0 ± 1.7 percentage	more effective against S. carnosus			
KKKKKLKKILKKLFQFINQLDNQLQDIKKKKK [KDFA2i+12]		100.6 ± 1.5 percentage	74.0 ± 6.7 percentage	more effective against S. carnosus			
KKKKLKKILKKLWQWINQLDNQLQDIKQNK-NH2 [KDWA2i+9-NH2]	103.2 ± 0.5 percentage	92.0 ± 3.6 percentage	29.6 ± 1.2 percentage				
KKKKLKKILKKLFQFINQLDNQLQDIKQNK-NH2 [KDFA2i+9-NH2]	102.3 ± 0.7 percentage	97.8 ± 1.6 percentage	87.1 ± 2.7 percentage		0.8 µM	15	
KKKKLKKILKKLFQFINQLDNQLQDFKQNK [KDFA2i+8(I26F)]	103.1 ± 0.8 percentage	98.8 ± 0.8 percentage	91.6 ± 2.8 percentage				leakage activity comparable to the parent peptide
KKKKLKKILKKLFQFINQLDNQLQDIKKKK-NH2 [KDFA2i+11-NH2]		102.9 ± 0.8 percentage	93.7 ± 3.1 percentage	more effective against S. carnosus			leakage activity comparable to the parent peptide
KKKKLKKILKKLFQFINQLENQLQEIKQNK-NH2 [KEFA2i+9-NH2]	101.0 ± 0.4 percentage	87.0 ± 3.8 percentage	29.2 ± 4.9 percentage				
